From the supplement of paper PMC3334620
The full ranking holds about 33,000 sequences; the median of “E-score (-0.5 to 0.5)” is about -0.054, and the highest 2% start at about 0.35. Some of the results follow.

target: T1, Stb5 (UniProt P38699); experiment: PBM E-score (8-mer binding enrichment) (E-score (-0.5 to 0.5)); higher = stronger / more preferred TF binding; most listed sequences are background and not binding sites; settings: protein concentration: 200 nM; construct: GST-full length
T1 sequence: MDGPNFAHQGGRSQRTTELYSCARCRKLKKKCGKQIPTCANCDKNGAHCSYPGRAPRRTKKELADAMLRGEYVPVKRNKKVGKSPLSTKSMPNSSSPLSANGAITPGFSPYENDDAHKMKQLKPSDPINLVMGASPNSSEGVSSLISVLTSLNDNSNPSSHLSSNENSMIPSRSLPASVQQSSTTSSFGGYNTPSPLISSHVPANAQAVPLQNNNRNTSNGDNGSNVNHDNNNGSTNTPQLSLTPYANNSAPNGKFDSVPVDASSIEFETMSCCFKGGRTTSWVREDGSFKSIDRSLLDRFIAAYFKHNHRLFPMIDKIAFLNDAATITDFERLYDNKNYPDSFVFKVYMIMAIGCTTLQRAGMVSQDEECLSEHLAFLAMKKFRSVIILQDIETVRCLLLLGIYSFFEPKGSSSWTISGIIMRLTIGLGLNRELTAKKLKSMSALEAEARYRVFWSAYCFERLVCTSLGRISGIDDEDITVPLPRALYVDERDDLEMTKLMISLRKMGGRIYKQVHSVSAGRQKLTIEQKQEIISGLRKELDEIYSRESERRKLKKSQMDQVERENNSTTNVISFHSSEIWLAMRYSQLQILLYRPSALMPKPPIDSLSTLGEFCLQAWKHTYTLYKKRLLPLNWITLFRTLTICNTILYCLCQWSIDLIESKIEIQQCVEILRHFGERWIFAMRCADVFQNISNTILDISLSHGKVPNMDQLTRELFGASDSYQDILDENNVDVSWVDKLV
Procedure: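 Universal 'all 10-mer' protein binding microarrays (Agilent AMADID 015681) probed with GST-tagged S. cerevisiae TFs (full-length or DBD) made by in vitro transcription/translation (PURExpress), about 100-200 nM. Bound TF was detected with fluorescent anti-GST. Each ungapped 8-mer (which stands for itself and its reverse complement) is scored by the PBM enrichment score (E-score), a modified Wilcoxon-Mann-Whitney statistic from -0.5 to +0.5, computed with the Universal PBM Analysis Suite. Scale: above 0.35 generally sequence-specific binding.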

Row | Sequence | PBM E-score
1 | GCGTCCTA | -0.159
2 | CCCGGCCG | 0.273
3 | GGGTACCC | -0.0555
4 | CAAAGCCA | -0.19
5 | CATACATC | -0.0389
6 | AATACTGG | -0.142
7 | CCCAGCAC | -0.126
8 | CGCGGTGC | 0.378
9 | ATCCACAT | -0.136
10 | AGGGGAGG | -0.0499
11 | AAACAGTG | -0.162
12 | CAACTTCG | -0.162
13 | AATATTTG | -0.0964
14 | AGCGTCCA | -0.15
15 | CTTCCTGA | -0.258
16 | CGATTGAC | -0.0756
17 | ATACGGGA | 0.228
18 | ACCCGACA | 0.233
19 | CCTATATA | 0.0669
20 | ACGCCAGA | -0.169
21 | CAAGCTAA | -0.204
22 | AGACTCCG | 0.304
23 | GATGCCAC | -0.155
24 | ACCTTAAC | -0.0196
25 | AGTTTCGC | -0.147

Row | Sequence | PBM E-score
26 | GGTGTATA | 0.171
27 | AACCGTCC | -0.0366
28 | ACCAGCCC | 0.211
29 | ATTAAGAG | 0.123
30 | ATCCGACA | 0.283
31 | CACCACAC | 0.0458
32 | CGTGACAG | -0.0301
33 | CCGAAGCA | 0.07
34 | CAACATTG | 0.0608
35 | AGCGCGGG | 0.111
36 | CATGTAGA | 0.00676
37 | ATCTGCAC | -0.0817
38 | GCTGGATA | -0.235
39 | AGACGATG | 0.0118
40 | GACTTTCC | -0.0068
41 | GAGGAAAC | 0.0678
42 | CAGTGGGG | -0.291
43 | ACCAGGCC | -0.135
44 | TAAATCGA | -0.267
45 | CCCGCTAA | 0.261
46 | AACAGATA | -0.0868
47 | ACCTATAA | 0.0419
48 | ATCGAGTC | -0.158
49 | CTGCTGTC | -0.0444
50 | CACTAGTA | -0.159

Row | Sequence | PBM E-score
51 | GACTTACA | 0.0197
52 | GCGGTGCC | 0.387
53 | GATGCCTA | -0.219
54 | GCTGCGTA | -0.288
55 | CAGGTGTA | -0.204
56 | GCGCGGAA | 0.165
57 | GAAGGGCC | 0.115
58 | GTCCAATA | 0.0373
59 | GAGACGCA | 0.0862
60 | CAGTGAAC | -0.293
61 | GTAACCAA | -0.0187
62 | ACTTTCAA | 0.0549
63 | GATAAGAC | -0.0658
64 | GACGTAAA | 0.102
65 | GCCTGCGC | -0.144
66 | ACACCGGA | 0.402
67 | CATGCGGG | 0.108
68 | ATGGCTAC | -0.327
69 | AGGCGGGA | 0.234
70 | CAAGCGTC | -0.132
71 | GAGACATC | -0.154
72 | GACTACTA | -0.108
73 | CTATAAGC | 0.128
74 | AAGAAAAT | -0.019
75 | CAGGTACG | -0.0473

Row | Sequence | PBM E-score
76 | CGCAATCA | 0.114
77 | AAGCGATT | -0.099
78 | CCATAGTC | -0.0501
79 | ACAATGGT | -0.107
80 | GAATGGTC | -0.0217
81 | ACCTGTAC | 0.0153
82 | ATTCCAGG | -0.12
83 | AACCCCAA | -0.0237
84 | GATAAGTA | 0.0753
85 | CCCGTCCA | 0.207
86 | AGACCTCG | -0.117
87 | GATCCGCA | 0.0791
88 | CCCGCATC | 0.206
89 | CCTGACAA | -0.238
90 | CGAACGAC | -0.0463
91 | CCAGGGTC | -0.133
92 | AGGCTGTC | -0.0851
93 | TACGGCAA | 0.137
94 | AGTACCTG | -0.223
95 | CCATTCTA | -0.284
96 | ACTTCGTG | -0.0376
97 | ACGCGGCT | 0.0652
98 | AGCTACAT | -0.185
99 | CGAAAATC | 0.0839
100 | TATCGTCA | -0.0711

Row | Sequence | PBM E-score
101 | CGAGATCA | -0.0627
102 | CATTGCCA | -0.315
103 | CCACTCCA | -0.173
104 | CTTCGGGA | 0.131
105 | CCGCGTGA | 0.139
106 | TCAAGCAA | -0.0991
107 | AGCCGACG | 0.232
108 | ACGGTGCT | 0.409
109 | CGGCAAGA | 0.183
110 | CCGGGTCG | 0.204
111 | GGCACTAA | 0.349
112 | ACCGGATG | 0.158
113 | AGGATGAT | -0.134
114 | CGACGCGA | -0.02
115 | GGCTCAGA | -0.102
116 | GGCATCCC | 0.052
117 | CGTGGTGA | -0.0451
118 | CCACACAA | -0.16
119 | ACTAGCAA | -0.132
120 | CATCCAGA | -0.136
121 | AGCCCACT | -0.13
122 | ACCCGATA | 0.114
123 | CGGCGCGA | 0.373
124 | CCACGCCA | -0.269
125 | GCTGGTAC | 0.0851

Row | Sequence | PBM E-score
126 | ACGCGGAC | 0.241
127 | CTTGTAGC | -0.0769
128 | GTCGTAGA | -0.104
129 | AGCCCCCT | -0.288
130 | CTATGCGC | 0.116
131 | AGCTCCTA | -0.0757
132 | TCTCGCAA | -0.0936
133 | GAGGGCTA | -0.166
134 | TCTGATCA | -0.171
135 | GAGCATCA | -0.135
136 | AGTAAGCA | -0.302
137 | CAACCTTC | -0.27
138 | GCTTTTCC | 0.158
139 | ACTTTGAT | -0.214
140 | GAGTGTTA | -0.153
141 | AAAGTACA | -0.247
142 | ACATCCAC | 0.085
143 | AGCCGTCC | 0.0676
144 | GGTGCTGA | 0.0715
145 | AAAAATAG | 0.105
146 | AATGGTAC | -0.0817
147 | ATGGGAAC | -0.238
148 | CCCTATCG | -0.0129
149 | ATTCCGAA | 0.219
150 | ACTTAGTC | 0.0386

Row | Sequence | PBM E-score
151 | CACGGAAC | 0.156
152 | AGAAAGGC | -0.0983
153 | CGTATAGA | -0.135
154 | CGTCCTTC | -0.229
155 | TCTAGCAA | -0.0188
156 | GCATCTAA | 0.21
157 | ACTTAAAT | -0.0452
158 | ACTGTAAG | 0.0547
159 | GTGTTAAC | 0.142
160 | TCGTAGCA | -0.121
161 | CGCCCACC | -0.0124
162 | TATAGTGA | -0.177
163 | GGAGAGAC | -0.0462
164 | ATAAAGAT | -0.22
165 | ACTTAGAC | -0.0493
166 | GCCCTACA | -0.0846
167 | AGCTTGTA | -0.239
168 | ACGCAGTA | -0.201
169 | GGATGTCA | 0.0442
170 | CCGTGAGA | 0.0557
171 | CTCTGCTA | -0.0312
172 | ATGCTCAA | -0.0792
